# Assay results reported in PubChem BioAssay AID1347044 (National Center for Advancing Translational Sciences (NCATS), 2019).
# Some of the results follow. Further columns of the screen follow, without active or inactive calls. The list favours compounds with an active or inconclusive main result. Potencies come from curve fits of mixed quality, noted in brackets.
# Assay: Natriuretic polypeptide receptor (hNpr1) antagonism - Confirmation; further: nearly all actives have a fitted effect of over 70% in size
# Settings: HEK293 hNpr1 cGMP GloSensor luminescence, ANP-stimulated; measured here: HEK-hNpr1 cytotoxicity, CellTiter-Glo
# How it was run: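 HEK293 cells expressing hNpr1 and the pGS-40F GloSensor cGMP sensor, loaded with 2% GloSensor reagent for 2 h, then treated 30 min with compound at room temperature. Luciferase luminescence read before and 20 min after 0.1 nM hNppA stimulation.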
# Tags describe the fitted curve by direction and shape.
row,SMILES,CC50
1,Cc1ccc(S(=O)(=O)N2CCCC(CCC(=O)N3CCCCC3)C2)cc1 (configuration not stated),"27.3 µM [falling, single point]"
2,Fc1ccc(-c2cnc3n2C[C@H](CNCc2ccccc2Cl)OC3)cc1,"35.3 µM [falling, partial curve]"
3,O=C(c1ccc(Cl)cc1)N1CCNc2cnc(Nc3ccccc3)nc2C1,"35.3 µM [falling, partial curve]"
4,O=C(Nc1ccc(Cl)cc1Cl)c1cn2c(n1)CN(C(=O)c1ccccc1)CC2,"21.7 µM [falling, partial curve]"
5,O=C(Cc1c[nH]c2ncc(-c3ccc(F)c(Cl)c3)cc12)NCc1cccnc1,"31.4 µM [falling, partial curve]"
6,CSc1ccc(CNC(=O)C2CCN(c3cc(C(F)(F)F)ncn3)CC2)cc1,"19.3 µM [falling, partial curve]"
7,Cc1cccc2c1nc1n2[C@@H](CNCc2ccc(S(C)(=O)=O)cc2)COC1,"25 µM [falling, partial curve]"
8,CC(C)(C)OC(=O)N1CC(NCc2ccc(-c3ccc(OC(F)(F)F)cc3)cc2)C1,"17.2 µM [falling, partial curve]"
9,COc1cccc(-c2noc(CC3CCN(C(=O)CCCc4ccccc4)CC3)n2)c1,"24.3 µM [falling, partial curve]"
10,O=C(c1cc2ccccc2[nH]1)N1CCC2(C1)NC(=O)N(Cc1ccc(F)cc1)C2=O (configuration not stated),"34.3 µM [falling, single point]"
11,O=C(N[C@H]1CO[C@H]2[C@@H]1OC[C@@H]2Nc1nccc(C2CCCC2)n1)c1ccccc1,"35.3 µM [falling, partial curve]"
12,O=C(NCc1ccccc1Cl)c1csc(N2CCN(c3ccc(F)cc3)CC2)n1,"21.7 µM [falling, partial curve]"
13,O=C(CCC1CCN(C(=O)c2cc(C3CC3)[nH]n2)CC1)N1CCC(Cc2ccccc2)CC1,"21.7 µM [falling, partial curve]"
14,Cc1nn(C)c(C)c1CCC(=O)N1CCC(Cc2noc(-c3ccc(F)cc3)n2)C1 (configuration not stated),"24.3 µM [falling, partial curve]"
15,Cc1nn(Cc2ccccc2)c(C)c1[C@@H]1C=C[C@@H](NS(=O)(=O)c2cccs2)C1,"31.4 µM [falling, partial curve]"
16,CCc1nccn1CC(=O)NC(C)c1cnn(-c2ccccc2C)c1C (configuration not stated),"21.7 µM [falling, partial curve, poor fit]"
17,O=C(NC1CCN(c2cc(-c3ccc(F)cc3)[nH]n2)CC1)c1ccc(F)c(Cl)c1,"43.2 µM [falling, single point]"
18,COCc1cc(N2CCC(c3cccc(OC)c3OC)C2)ncn1 (configuration not stated),"3.43 µM [falling, full curve]"
19,COc1ccc(-c2noc(CC3CCN(C(=O)c4ccc(OC)nc4OC)CC3)n2)cc1,"6.85 µM [falling, full curve]"
20,CC(C)c1cccc(NC(=O)C2CCN(C(=O)c3ncn4c3COC(c3ccc(F)cc3)C4)CC2)c1 (configuration not stated),"43.2 µM [falling, single point]"
21,Cc1ccc(Cl)cc1NC(=O)c1cnc(-c2ccccc2)nc1-c1ccncc1,"38.5 µM [falling, single point]"

row,SMILES,CC50
1,O=C(N1CC(Oc2ccc(-c3nc(-c4ccccc4)no3)cc2)C1)C1(c2ccccc2)CC1,"24.3 µM [falling, partial curve]"
2,COc1ccc(CN2CC3(CCN(C(=O)Nc4cccc(C(F)(F)F)c4)CC3)C2=O)cc1,"21.7 µM [falling, partial curve]"
3,FC(F)(F)C1CN(c2ccnc3ccc(Cl)cc23)CCO1 (configuration not stated),"17.2 µM [falling, partial curve]"
4,COc1ccc(CNC(=O)c2ccc(Cn3ccn4nc5c(c4c3=O)CCCC5)cc2)cc1,"27.3 µM [falling, partial curve]"
5,COc1cccc(-c2cc(C3CCN(C(=O)c4ccccc4Br)CC3)[nH]n2)c1,"21.7 µM [falling, partial curve]"
6,COc1cccc(-c2noc(CC3CCN(C(=O)c4ccc(OC)c(OC)c4)CC3)n2)c1,"15.3 µM [falling, partial curve]"
7,Cc1nc(N2CCC(NC(=O)c3nccc4ccccc34)CC2)cc(C(F)(F)F)n1,"15.3 µM [falling, partial curve]"
8,Cc1ccc(N2CCN(C(=O)C3CCCN(c4cnn(Cc5ccccc5)c(=O)c4)C3)CC2)cc1 (configuration not stated),"17.2 µM [falling, partial curve]"
9,CC1(COc2cccnc2)COc2ccc(C(=O)N3CCN(c4ccccn4)CC3)cc2N1 (configuration not stated),"10.9 µM [falling, partial curve]"
10,COc1nccc(N2CCC(CC(=O)NCc3ccc(F)c(Cl)c3)CC2)n1,"19.3 µM [falling, partial curve]"
11,COc1ccc(-c2noc(CC3CCN(C(=O)C4(c5ccc(OC)cc5)CC4)CC3)n2)cc1,"5.44 µM [falling, partial curve]"
12,Cn1cc(CC(=O)N2CCCc3ncc(C(=O)N4CCC(c5ccccc5)CC4)cc32)c2ccccc21,"21.7 µM [falling, partial curve]"
13,FC(F)(F)c1cccc2c(N3CCOC(C(F)(F)F)C3)ccnc12 (configuration not stated),"17.2 µM [falling, partial curve]"
14,COc1cccc(N2CCN(C(=O)c3cc4n(n3)CC(c3ccc(Cl)cc3)OC4)CC2)c1 (configuration not stated),"27.3 µM [falling, partial curve, poor fit]"
15,CC1=NS(=O)(=O)N(C)C=C1C(=O)OCc1nc(-c2ccc(OC(F)(F)F)cc2)no1,"17.2 µM [falling, partial curve]"
16,O=C1COc2ccc(Nc3ccc(Cl)cc3)nc2CN1Cc1nc2ccccc2s1,"49.8 µM [falling, single point]"
17,CNC(=O)c1cccc(NC(=O)c2nc(C(O)c3ccccc3F)oc2C)c1 (configuration not stated),"31.4 µM [falling, partial curve]"
18,O=C(c1ccc(-c2ncc3cnc(-c4cccc(F)c4)cn23)cc1)N1CCc2cccnc21,"7.89 µM [falling, full curve]"
19,CC(C)NC(=O)N1C2CCC1CN(c1ccc(C(F)(F)F)cc1)C2,"17.1 µM [falling, partial curve]"
20,Clc1cnccc1CN1CCNc2cnc(-c3ccccc3)cc2C1,"31.4 µM [falling, partial curve]"
21,O=C(NCc1cccc(F)c1)c1nc2c(o1)CCN(Cc1cc(F)ccc1F)CC2,"39.6 µM [falling, single point]"

row,SMILES,CC50
1,O=C(NCc1ccc2c(c1)OCO2)c1csc(N2CCN(c3ccc(F)cc3)CC2)n1,"19.3 µM [falling, partial curve]"
2,O=C1NN=C(c2cccnc2)C12CCN([S+](=O)([O-])c1cccc(C(F)(F)F)c1)CC2,"21.7 µM [falling, partial curve]"
3,CN(C)c1cccc(C(=O)N2CCC(OCCOc3ccc(F)cc3)CC2)c1,"21.7 µM [falling, partial curve]"
4,Nc1ncccc1CN1CCC2(CC1)COCCN2C(=O)OCc1ccccc1,"12.5 µM [falling, partial curve]"
5,COc1ccc(C(=O)N2CCC3(CC2)N=C(c2ccc(Br)cc2)NO3)cc1OC,"12.2 µM [falling, partial curve]"
6,CCc1noc(-c2cn(C3CCN(C(=O)c4ccc(C(C)(C)C)cc4)C3)nn2)n1 (configuration not stated),"24.3 µM [falling, partial curve]"
7,CC(C)CN[C@H]1CO[C@H]2[C@@H]1OC[C@@H]2Nc1nccc(-c2cccs2)n1,"31.4 µM [falling, partial curve]"
8,CCOc1ccc(NC(=O)CCC2CCN(c3cc(NC4CC4)ncn3)CC2)cc1,"19.3 µM [falling, partial curve]"
9,O=C1c2cnc(-c3ccncc3)nc2OCCN1Cc1ccc(F)cc1F,"28 µM [falling, partial curve]"
10,Cc1cc(F)cc(CN2CCc3nc(C(=O)NCC4CC4)oc3CC2)c1,"28 µM [falling, partial curve]"
11,c1ccc(CNC[C@H]2COCc3nc4ccccc4n32)cc1,"25 µM [falling, partial curve]"
12,Cc1ccc(OCC(=O)N2CCC(Cc3nc(-c4ccc(F)cc4)no3)CC2)cc1,"15.3 µM [falling, partial curve]"
13,O=C(c1ccc(F)cc1Cl)N1CCC(Cc2nc(-c3ccc(F)cc3)no2)CC1,"4.85 µM [falling, full curve]"
14,COc1ccc(-c2noc(CC3CCN(C(=O)CCc4cccc(OC)c4)CC3)n2)cc1,"24.3 µM [falling, partial curve]"
15,O=C(c1csc(N2CCN(c3ccccc3)CC2)n1)N1CCN(c2ccccn2)CC1,"24.3 µM [falling, partial curve]"
16,COc1ccc(C(=O)N2CCC3(CC2)N=C(c2ccc(Cl)cc2)NO3)cc1OC,"15.3 µM [falling, partial curve]"
17,COc1ccc(CC(=O)N2CCC(Cc3nc(-c4ccc(F)cc4)no3)CC2)cc1OC,"8.62 µM [falling, partial curve]"
18,O=C(c1ccc(F)cc1F)N1CCC2(CC1)N=C(c1ccc(Cl)cc1)NO2,"24.3 µM [falling, partial curve]"
19,Cn1cc(-c2cccc(O)c2)c2nc(COc3ccc(Cl)cc3)cn2c1=O,"39.6 µM [falling, partial curve]"
20,O=C(CC1CCCCC1)N1CCC(Cc2nc(-c3ccc(F)cc3)no2)CC1,"12.2 µM [falling, partial curve]"
